Where “and” joins values, the source holds several entries; their conditions need not be identical. Identical values can stand only once. Out of some 110,000 compounds screened, about 230 (0.21%) showed an effect of 50% or more. Some of the results follow.
Target: DPAP1 (Plasmodium falciparum, UniProt Q8IIJ9)
Test: primary screen, percent inhibition; read by cleavage of a fluorogenic dipeptide substrate; higher = more effect of the substance
Set-up: species or system P. falciparum D10 trophozoite lysates; single well
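Also: 30 min substrate incubation versus DMSO and 10 µM JCP410 controls.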

Sequence of DPAP1 (Q8IIJ9 whole entry, looked up): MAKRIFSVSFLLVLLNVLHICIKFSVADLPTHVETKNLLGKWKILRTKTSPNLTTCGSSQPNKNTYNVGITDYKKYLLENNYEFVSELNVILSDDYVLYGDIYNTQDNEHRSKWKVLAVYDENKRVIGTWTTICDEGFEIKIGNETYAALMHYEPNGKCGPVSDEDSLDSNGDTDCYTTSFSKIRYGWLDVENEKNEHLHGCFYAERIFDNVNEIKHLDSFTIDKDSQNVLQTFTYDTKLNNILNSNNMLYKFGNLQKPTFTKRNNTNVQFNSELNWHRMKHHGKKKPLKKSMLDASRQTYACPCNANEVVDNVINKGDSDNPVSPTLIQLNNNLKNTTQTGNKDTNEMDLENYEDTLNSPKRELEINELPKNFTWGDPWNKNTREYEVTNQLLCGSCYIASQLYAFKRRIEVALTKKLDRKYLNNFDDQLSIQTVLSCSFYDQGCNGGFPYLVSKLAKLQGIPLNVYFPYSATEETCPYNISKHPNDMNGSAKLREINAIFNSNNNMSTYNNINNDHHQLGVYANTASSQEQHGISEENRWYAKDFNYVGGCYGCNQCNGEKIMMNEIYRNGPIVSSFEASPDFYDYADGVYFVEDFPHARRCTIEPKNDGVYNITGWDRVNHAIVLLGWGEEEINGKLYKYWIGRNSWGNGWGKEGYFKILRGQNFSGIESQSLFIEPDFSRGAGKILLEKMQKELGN

Row | SMILES | % Inhibition @ 10 uM
1 | COc1nc(N)nc(-c2ccco2)n1 | -2.81%
2 | CCCCn1c(CN2CCCCC2)nc2c1c(=O)n(C)c(=O)n2C | -0.499%
3 | CCn1c(S)nc2c(=O)oc3ccccc3c21 | 14%
4 | CC(C)Cc1csc2ncnc(N3CCCC3)c12 | -2.6%
5 | CC(C)CNC(=O)CN(Cc1ccc(Cl)c(Cl)c1)S(=O)(=O)c1ccccc1 | 0.475%
6 | COc1ccc(-n2c(C)cc(/C=C3\C(=N)N4N=C(N5CCOCC5)SC4=NC3=O)c2C)cc1 | -1.66%
7 | C=CCN1C(=O)S/C(=C/c2ccccc2OCc2cccc(C(=O)O)c2)C1=O | -1.43%
8 | C=CCn1c(S)nc2c1c(=O)n(C)c(=O)n2C | -1.1%
9 | O=C(NCC(Cc1ccccc1F)c1ccccc1)c1nc(-c2cccs2)no1 (stereo not shown) | 4.58%
10 | O=C(O)CC[n+]1ccc(-c2cc[n+](CCC(=O)O)cc2)cc1 | -4.84%
11 | COc1cc(C)c(C(C)C)cc1S(=O)(=O)n1cnc(C)c1 | -0.85%
12 | CCN(CC)C(=O)/C(=C/c1ccc2c(c1)OCO2)NC(=O)c1ccc(Br)cc1 | 24.4%
13 | COc1cc(NC(=O)Nc2ccc(Cl)cc2)c(OC)cc1Cl | -1.42%
14 | CC1(c2ccccc2)CC(C)(C)N2C(=O)C(=O)c3cccc1c32 (stereo not shown) | -3.46%
15 | COc1cc(/C=C2\SC(Nc3ccc(C)cc3)=NC2=O)ccc1OC(C)C(=O)O (stereo not shown) | 0.161%
16 | Cc1ccc(C(C#N)NC(=O)[C@H](CC(C)C)NC(=O)c2ccc(-c3ccccc3Cl)cc2)o1 (stereo partly shown) | -6.46% and -1.41%
17 | CCOC(=O)c1c(NC(=O)CN2CCOCC2)sc(C)c1C | -0.999%
18 | COc1ccc(C(=O)O/N=C(\N)Cc2cccs2)cc1OC | -5.01%
19 | N#Cc1c(C(F)(F)F)n2c3c(cccc3c1=N)CCC2 | -5.01%
20 | CCC(Sc1nc2nnc(C)c-2c(N)n1-c1cc(Cl)ccc1C)C(=O)N1CCOCC1 (stereo not shown) | 4.35%
21 | O=C(Nc1ccccc1Br)c1ccc([N+](=O)[O-])cc1 | 1.48%
22 | O=C1OC(c2cncc(Br)c2)=N/C1=C\c1cc(Br)cs1 | -0.617%
23 | CCN(CC)c1ccc(NC(=O)c2ccccc2OC)c(C)c1 | -8.59%
24 | O=c1ccc2ccc(O)c(CN3CCOCC3)c2o1 | 5.01%
25 | CCSc1nc2c(c(=O)n1C)C1(CCCC1)Cc1ccccc1-2 | -7.54%

Row | SMILES | % Inhibition @ 10 uM
26 | O=C(O)c1ccccc1/N=c1\c([N+](=O)[O-])c(O)oc2ccccc12 | 7.92%
27 | COc1ccc(C(=O)NCCNC(=O)c2ccc(OC)cc2)cc1 | 2.39%
28 | COc1ccc(CN2CC(C(=O)NCCCN3CCN(Cc4ccccc4)CC3)CC2=O)cc1 (stereo not shown) | 1.62%
29 | CCOC(=O)c1cnc2nc(NCc3cccc(OC)c3)nn2c1O | -7.96%
30 | CC(=O)NCc1nc2ccccc2n1Cc1cc(C)ccc1C | 4.69%
31 | CCc1ccc(S(=O)(=O)Nc2ccc(-c3cn4cccnc4n3)cc2)cc1 | 0.13%
32 | CCOc1ccc(-c2[nH]nc3c2C(c2ccc(O)c(OCC)c2)NC3=O)cc1 (stereo not shown) | -7.16%
33 | COc1cccc(-n2nnc3c(=O)n(CC(=O)NC4CCCC4)cnc32)c1 | -2.16%
34 | O=C1c2cccnc2C(=O)N1Cc1ccc(F)cc1S(=O)(=O)N1CCOCC1 | -5.16%
35 | CCN(CC)CCN1C(=O)C(O)=C(C(C)=O)C1c1ccc(Br)cc1 (stereo not shown) | 12.9%
36 | CC(C)CC(C(=O)NCC#N)c1cccc(NC(=O)NCCCN2CCOCC2)c1 (stereo not shown) | -3.97%
37 | Cc1ccc(Cn2c(SCC(O)CO)nc3c2c(=O)[nH]c(=O)n3C)cc1 (stereo not shown) | 3.45%
38 | O=C(CSCc1ccccc1)Nc1cnc(O)nc1O | 0.273%
39 | Cn1c(=O)c2c(nc(CN3CCOCC3)n2CCCc2ccccc2)n(C)c1=O | -1.43%
40 | C=CCN1C(=O)NC(=O)/C(=C/c2cc(Br)c(OCC(=O)O)c(OC)c2)C1=O | 0.128%
41 | Cc1ccc(/C=C2/C(=N)N3N=C(Cc4ccccc4)SC3=NC2=O)cc1 | 41.7%
42 | O=C(c1nn2c(c1Cl)NC(c1ccco1)CC2C(F)(F)F)N1CCN(Cc2ccccc2)CC1 (stereo not shown) | 3.25%
43 | CCC(C)c1ccc(OCCOc2ccc(C=C3C(=O)N(C)C(=O)N(C)C3=O)cc2)cc1 (stereo not shown) | -4.11%
44 | CC(=O)Nc1ccc(NC(=O)c2cnccn2)cc1 | 2.01%
45 | COc1ccc(-c2csc3ncn(Cc4ccccc4)c(=O)c23)cc1OC | 3.04%
46 | CCNC(=O)c1ccc2c(c1)sc1nc(-c3ccc(CC)cc3)cn12 | -2.97%
47 | O=C(Nc1nnc(S(=O)(=O)N2CCOCC2)s1)C1CCCCC1 | 0.00665%
48 | COC(=O)c1c(NC(=O)c2cc3ccccc3oc2=O)sc2c1CCCC2 | 17%
49 | CCOC(=O)c1c(C)n(-c2ccc(OC)cc2)c2ccc(O)c(CN(C)C)c12 | -1.29%
50 | CCCCCC/C(C)=C(\C#N)C(=O)OCC | -5.51%

Row | SMILES | % Inhibition @ 10 uM
51 | Cc1cc(C)nc(/N=C(/NC(=O)Nc2ccccc2)NC2CC(C)(C)NC(C)(C)C2)n1 | -5.3%
52 | CCOc1ccccc1C(=O)N1CCc2cc(OC)c(OC)cc2C1COc1ccccc1OC (stereo not shown) | -3.18%
53 | CC(C)C1Cc2c(sc3nc(SCC(=O)O)n(Cc4ccccc4)c(=O)c23)CO1 (stereo not shown) | -3.33%
54 | Cc1ccc(OCC(=O)Nc2ccc(S(=O)(=O)N3CCOCC3)cc2)cc1 | -2.8%
55 | CC(C)(C)NC(=O)N[C@@H](CC1CCCCC1)C(=O)NCC#N | 1.35%
56 | Cc1ccc(-n2c(C34CC5CC(CC(C5)C3)C4)cn3c4c(=O)n(C)c(=O)n(C)c4nc23)cc1 | 0.503%
57 | COC(=O)c1sc(N2C(=O)c3oc4ccc(F)cc4c(=O)c3C2c2ccc(O)cc2)nc1C (stereo not shown) | 3.73%
58 | CNC(=O)C1CCN(S(=O)(=O)c2c(C)cc(C)cc2C)CC1 | 3.75%
59 | CNC(=O)/C(C#N)=C/c1c(Oc2cc(C)cc(C)c2)nc2c(C)cccn2c1=O | -1.43%
60 | Cc1cccc(CNC(=O)C2CCCN(S(=O)(=O)N3CCC4(CC3)OCCO4)C2)c1 (stereo not shown) | -1.6%
61 | Cn1cc(-c2nnc(-c3ccccc3)o2)c2ccccc2c1=O | -5.48%
62 | COCCN1C(=O)/C(=C\c2ccc(OCC(=O)NC(C)C)cc2)C(C(=O)OC)=C1C | -3.4%
63 | CS/C(=N\C(CC1CCCCC1)C(=O)NCC#N)NS(=O)(=O)c1ccccc1 (stereo not shown) | -3.14%
64 | O=C(CN1C(=O)C2C3C=CC(C3)C2C1=O)N1CCN(C(=O)c2ccco2)CC1 (stereo not shown) | 1.26%
65 | COc1cc2c(cc1/C=C1/NC(=O)N(Cc3ccc(F)cc3)C1=O)OCO2 | 3.62%
66 | COc1cc(-c2nnc3n(CCc4ccccc4)c(=O)c4ccccc4n23)ccc1O | 3.3%
67 | Cc1cccc(C(=O)Nc2cccc(Cl)n2)c1 | -6.85%
68 | Cc1ccc(S(=O)(=O)/N=C(\Nc2cc(C)on2)c2ccccc2)cc1 | -5.22%
69 | Oc1c2c(nc3nnnn13)-c1ccccc1CC21CCCC1 | 1.24%
70 | COC(=O)C1=C(C)N(Cc2ccco2)C(=O)/C1=C\c1cc(C)n(-c2ccccc2Cl)c1C | 1.84%
71 | Cc1ccc(/N=C2\CCCCCN2C)c(C#N)c1 | -2.8%
72 | O=C(CCCCn1c(=O)[nH]c2ccsc2c1=O)NCCc1c[nH]c2ccccc12 | -3.27%
73 | Cc1cc2nc(O)c(O)nc2cc1S(=O)(=O)NCc1ccc(Cl)cc1 | -1.6%
74 | CC(=O)c1ccc(N2CCN(Cc3cccc(Br)c3)CC2)cc1 | -4.4%
75 | O=C(CC(NC1CCCCC1)c1ccccc1O)NC1CCCCC1 (stereo not shown) | -1.91%

Row | SMILES | % Inhibition @ 10 uM
76 | Cc1nc2ccccc2c2c1C(=O)N(c1cccnc1Cl)C2=O | -7.33%
77 | O=C(CCc1ccccc1)N1CCC(c2ccccc2)C1 (stereo not shown) | -1.06%
78 | Cc1cc(C)c(S(=O)(=O)N(C)CC(=O)N2CCN(c3cccc(Cl)c3)CC2)c(C)c1 | 1.19%
79 | N#CSc1ccc(N/C=C2/C(=O)NC(=O)N(c3ccccc3)C2=O)cc1Cl | 16.9%
80 | COCc1cc(C)nc2c1C(=O)NC(c1ccc(OC)cc1)N2Cc1ccccc1 (stereo not shown) | 1.84%
81 | Cn1c(=O)[nH]c(=O)c2c1nc(NCCO)n2Cc1ccc(Cl)cc1 | -5.6%
82 | NC(=O)C1CCN(c2cc(-c3ccccc3)nc3nncn23)CC1 | 4.13%
83 | COc1ccc(C2C3=C(O)CCCC3=NC(C)=C2C(=O)N2CCCCC2)cc1O (stereo not shown) | 1.86%
84 | Cc1c(CNC2CCCCCCC2)c(C(=O)O)c(C)n1Cc1ccccc1F | -3.67%
85 | CCCCNC(=O)CCCn1sc2ccccc2c1=O | -3.53%
86 | Cc1ccc(/C=c2\sc3nc(=O)c(C)nn3c2=O)o1 | -1.52%
87 | CCOC(=O)N1CCC(N2C(=O)c3ccccc3C2O)CC1 (stereo not shown) | -2.83%
88 | CCOC(=O)N1CCN(C(=O)C2COc3ccccc3O2)CC1 (stereo not shown) | -7.41%
89 | N#CC1=C(N)OC2=C(C(=O)CCC2)C1c1ccccc1OCc1ccc(Br)cc1 (stereo not shown) | -6.58%
90 | CCOC(=O)c1cc(S(=O)(=O)N2CC3CC(C2)c2cccc(=O)n2C3)cn1C (stereo not shown) | 6.98%
91 | CCCCN(Cc1ccccc1)Cc1ccncc1 | -5.42%
92 | CCOc1ccc2oc(=O)cc(CN3CCOCC3)c2c1 | -3.49%
93 | CCOC(=O)N1CCN(C(=O)CSc2nnc(-c3ccc(Cl)s3)o2)CC1 | -1.59%
94 | Cc1cc(C)nc(N2CCC(C(=O)O)CC2)n1 | 6.7%
95 | O=C(Cn1ncn2c(cc3ccccc32)c1=O)NCc1ccccc1Cl | -1.7%
96 | COc1ccc(C2=NN(S(C)(=O)=O)C(c3cc(OC)ccc3OC)C2)cc1 (stereo not shown) | 1.52%
97 | CC(C)CC(NC(=O)c1ccc2c(c1)OCO2)C(=O)NCC#N (stereo not shown) | -0.778%

From publication PMC6919601, “Identification of Plasmodium dipeptidyl aminopeptidase allosteric inhibitors by high throughput screening” (PLoS ONE, 2019)
